Over roughly 33,000 sequences, “E-score (-0.5 to 0.5)” has its median near -0.012; the highest 2% begin near 0.29. Some of the results follow.
biological target: T1, Ybr033w (UniProt P38073); assay: PBM E-score (8-mer binding enrichment) (E-score (-0.5 to 0.5)); higher = stronger / more preferred TF binding; most listed sequences are background and not binding sites; conditions: protein concentration: 200 nM; construct: GST-full length
T1 sequence: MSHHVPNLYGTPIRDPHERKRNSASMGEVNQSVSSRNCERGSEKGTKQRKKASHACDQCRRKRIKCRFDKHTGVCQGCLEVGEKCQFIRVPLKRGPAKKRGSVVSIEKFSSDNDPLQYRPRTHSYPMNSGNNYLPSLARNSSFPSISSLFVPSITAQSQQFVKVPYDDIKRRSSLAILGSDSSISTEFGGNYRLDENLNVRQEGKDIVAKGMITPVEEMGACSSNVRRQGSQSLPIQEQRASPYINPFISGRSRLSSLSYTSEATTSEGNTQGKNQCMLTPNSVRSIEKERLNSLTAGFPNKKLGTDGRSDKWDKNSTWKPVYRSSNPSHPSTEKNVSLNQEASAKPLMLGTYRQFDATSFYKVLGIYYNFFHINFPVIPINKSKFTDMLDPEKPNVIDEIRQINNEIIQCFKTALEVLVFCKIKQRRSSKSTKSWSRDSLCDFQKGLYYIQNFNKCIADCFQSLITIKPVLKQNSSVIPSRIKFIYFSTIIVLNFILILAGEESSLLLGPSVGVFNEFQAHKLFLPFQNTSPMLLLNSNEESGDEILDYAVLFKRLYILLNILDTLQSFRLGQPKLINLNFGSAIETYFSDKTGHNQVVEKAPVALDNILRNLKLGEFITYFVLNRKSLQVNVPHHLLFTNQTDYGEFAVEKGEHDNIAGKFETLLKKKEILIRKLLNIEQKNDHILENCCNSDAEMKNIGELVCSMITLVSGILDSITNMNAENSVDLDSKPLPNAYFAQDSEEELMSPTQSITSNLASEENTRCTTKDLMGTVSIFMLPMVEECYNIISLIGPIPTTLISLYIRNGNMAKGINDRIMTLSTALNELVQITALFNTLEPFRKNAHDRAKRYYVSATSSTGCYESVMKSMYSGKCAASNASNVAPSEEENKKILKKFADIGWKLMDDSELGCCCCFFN
Method in brief: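 Yeast transcription factors, full-length or as DNA-binding domains, were expressed with a GST tag using PURExpress in vitro transcription/translation. At about 100-200 nM they were applied to universal all-10-mer Agilent arrays, double-stranded by primer extension on fresh or once-stripped slides. Fluorescent anti-GST detected bound protein, and masliner normalised the scans. E-scores for ungapped eight-base words, pooled with reverse complements, came from the Universal PBM Analysis Suite.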

Row | Sequence | PBM E-score
1 | ACAATAAG | 0.101
2 | GACAAACC | 0.00073
3 | CAAAAAAC | 0.146
4 | TACAGAGA | -0.0917
5 | CGTTCCAG | 0.00365
6 | CTTCTTGC | 0.0703
7 | ACGCCCCA | -0.0884
8 | ACACTGGC | -0.159
9 | CGCCAGCC | -0.205
10 | GGGAAGCA | -0.177
11 | CGGCGGAC | -0.152
12 | AGTATAGA | 0.111
13 | CCTTCTAC | -0.306
14 | AAGACAAT | 0.0281
15 | AATGTACG | -0.026
16 | ACAGTTCC | 0.00752
17 | CGCGGCCG | -0.281
18 | GTGCTTCA | 0.114
19 | CCTTGTAG | -0.266
20 | ATTCGGAG | 0.0644
21 | GGGCCCGA | -0.248
22 | CATAATGA | 0.121
23 | ATTGTGCA | 0.147
24 | CTCTCAAG | 0.0738

Row | Sequence | PBM E-score
25 | GAAGTCAC | -0.0913
26 | AGCTCTTC | 0.0781
27 | CTCCCCCC | -0.316
28 | TATTTACA | 0.21
29 | ATCGACTG | 0.0355
30 | CAGCAACA | 0.235
31 | CCGGGCAC | -0.202
32 | AGGCACCC | -0.36
33 | ATCAATCG | 0.206
34 | CGATGGTC | -0.118
35 | CAAGAGTG | -0.0494
36 | AGGTGATA | -0.0022
37 | AGCTTAGA | -0.0294
38 | CGTCAACA | -0.207
39 | AGCTTACT | 0.0872
40 | TACGAAGA | 0.00239
41 | ACATATTG | 0.193
42 | AAGGCAGC | 0.00267
43 | CCAGAAAG | 0.171
44 | CACCCGGG | -0.243
45 | CCTGTCCG | -0.325
46 | CGGGAGCC | -0.293
47 | GTGCAAAC | -0.115
48 | GGAAGGCC | -0.269

Row | Sequence | PBM E-score
49 | CATATGCA | 0.0648
50 | CCTGCTTC | -0.223
51 | GTGTAGCA | -0.134
52 | ACCCAAAG | -0.0587
53 | ATGGTCTG | 0
54 | CATTCGAA | 0.018
55 | ATTCGTTG | 0.0411
56 | GATGTAAC | 0.0438
57 | GATGGGAC | -0.188
58 | AAACGGGC | -0.145
59 | TCACTCAA | 0.125
60 | AAGTATGC | -0.00097
61 | ATATTTCG | 0.269
62 | GCTTACCC | -0.149
63 | GCTTAATA | 0.0557
64 | ATGCCGTC | -0.134
65 | AAAGCTCC | -0.214
66 | AACACTCC | 0.0733
67 | CTCCGACC | -0.291
68 | AACGGGTG | -0.206
69 | CCCCGGCG | -0.337
70 | ACCCGCTG | -0.169
71 | AGCTAAGC | -0.181
72 | CAACTCCG | -0.0556

Row | Sequence | PBM E-score
73 | AACGTAGA | 0.0243
74 | CTCTTGCC | -0.061
75 | ATCCGCAA | 0.0132
76 | CTTTTCGC | 0.241
77 | TCAAAACA | 0.298
78 | CCTGCCAC | -0.115
79 | TCCGACAA | -0.0736
80 | CGGGTGAG | -0.164
81 | TATAAGAA | 0.129
82 | ATGCTCTA | -0.12
83 | AATTTGTC | 0.103
84 | CTTATAAG | 0.0621
85 | GAATGAAA | 0.141
86 | CGGTGTCA | -0.21
87 | ACTAGATG | 0.105
88 | CCGGTAAG | 0.0788
89 | TAACGCGA | 0.0926
90 | GCGCTCTA | -0.159
91 | GATCGCGA | -0.0152
92 | TGACGAAA | 0.182
93 | TACGGAGA | 0.101
94 | CTGTACAA | 0.133

From the supplement of paper PMC3334620
